The other results are listed elsewhere or left out.
What follows are sequences tested on PfAP2-HC AP2 domain (GST-tagged) (assay: gcPBM binding intensity (ln(normalized median fluorescence intensity)); higher = stronger DNA binding).
Summary of the method: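 Binding intensity is defined as the maximum Masliner-normalised natural-log median intensity across replicate spots for either probe orientation. It was measured on an Agilent 4 × 180k array of primer-extended double-stranded 36-bp intergenic genomic probes and negative controls, to which GST-tagged P. falciparum DNA-binding domains made in E. coli were applied for 1 h in 1× PBS with 1% milk, 0.2 mg/ml BSA, 0.5% salmon testes DNA and 0.03% Triton X-100. Detection was by Alexa488 anti-GST antibody and scanning at 488 nm.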

| Sequence | gcPBM binding intensity (ln) |
| --- | --- |
| AATATTACAAAATATTGTCCGTACAAATTTTTAATA [XGTACX_site8129] | 9.44 |
| GATGATAAAATATGTACACACAGTTTATACATTTTG [CACACA_site4055] | 9.97 |
| TTTTTGTATTCTACCTTAACAATCTTAAAGATTTTT [CACACA_negctrl_site1157] | 9.53 |
| TGATGGTTACGTTTATGTACACATTACAGTTAGTAT [XGTACX_site998] | 9.75 |
| TTTTTTTTTTTAAAATGTACACGTAATTACATATAT [XGTACX_site752] | 9.77 |
| ACTACATTATTGCATTGTACTTTTTTTTTTTTTTTA [XGTACX_site4605] | 9.78 |
| TTAAAAATTATATAAGTGCATTAATATTTAGAACAA [GTGCAC_site9773] | 9.54 |
| AAAATATATTAAGGCACACACATACATATATATATA [CACACA_site3723] | 10.7 |
| GAGTTAATATTTAAAAGTACAAGATGAATGTAAAAA [XGTACX_site5810] | 9.73 |
| TATATTGAATGCAAAAGTACATTTGTGTAAATTTAT [XGTACX_site7611] | 9.72 |
| TTTTTTTTATTAGTGTGTACGCATTTATTTATACAT [XGTACX_site1599] | 10.1 |
| TTTAAATTATGAAATTGTACATATAAAAATATTTTA [XGTACX_site4796] | 9 |
| TATATATTATTTAAAACACACAAAAAAAAAAATTAT [CACACA_site89] | 9.81 |
| TTAAAAATATATGAATGTACATATATTTATATATAT [XGTACX_site77] | 9.55 |
| TACTTACCAAAATACACACACACACCCAATATATAA [CACACA_site1871] | 10.5 |
| AATAAAATGAGATGTTGTACAGTTTTGATATATGCA [XGTACX_site3052] | 9.71 |
| TTTAAAAATGCTACATGTACAAAATAAAATATAATA [XGTACX_site2905] | 9.65 |
| ATATATATATATAAAAGTACATGCTTATATATATAT [XGTACX_site3786] | 9.66 |
| AAGTTTATCACAGCCACGCACACATAATATATGTAT [CACACA_site3670] | 10.1 |
| ATTTTTTTTATTCAATGTACTTTTTTTTATATATAT [XGTACX_site4978] | 9.73 |
| TATATAAACATACATACACACATACAATAAGTAAAA [CACACA_site5118] | 10.1 |
| CACCCACTAATAAACACACACATATATATATATATA [CACACA_site389] | 10.4 |
| TACAAAATATATATGACACACATAAAAAAAAGTATA [CACACA_site1373] | 9.89 |

| Sequence | gcPBM binding intensity (ln) |
| --- | --- |
| CATATAAAAATATGCACACACAGGAATACAAACATA [CACACA_site684] | 10.3 |
| AATAAAAAACTACAATATACAAAATTATTAAATCAA [GTGCAC_negctrl_site703] | 9.67 |
| AAACGTACATAATACACACACATGTATCCATATAAA [CACACA_site5173] | 10.2 |
| ACCTAAGAACTATTTACACACATATACAAAATATAT [CACACA_site2459] | 9.86 |
| ATTGTTCTATGATTTGTACACACTTTTTTTTAAAAT [CACACA_site2825] | 9.94 |
| ATACAATAAAGGTGTACACATATATGATGCAAGATG [CACACA_site5897] | 10 |
| ATATATATTTTTTAATGTACTTATATTTTTATAATA [XGTACX_site2103] | 9.64 |
| AATTAAACTCACACCACACACAAAAAAAAAAAAAAA [CACACA_site693] | 10.3 |
| AGCAATTGTGTTTTCACACATAAATATATTCCTCAC [CACACA_site5021] | 9.75 |
| GGTCATATTTTTTGCACACAAAAAAAAATATAAAAT [CACACA_site3381] | 9.79 |
| ATATATATATATATATGTACACATATATGTGTTTGT [XGTACX_site62] | 9.87 |
| TTAATAAACCTTAGATGTACAGTTATATATAAAATA [XGTACX_site6681] | 9.54 |
| GTATGTATGTATGTATGTACTTATGTAGTCTTAGTT [XGTACX_site1710] | 9.96 |
| AGTGTAGGTATATAAACACACATACAGATATATAAT [CACACA_site4900] | 9.99 |
| TAAAAAATAAAATGGACACACACGTTCAAATTTAGA [CACACA_site2083] | 10 |
| TATTCAGGTCCAATGGTGCAATATATTTTTGTAATA [GTGCAC_site9607] | 9.61 |
| GATTTTTTTTTTTTTTCACACACTAATAATATTATC [CACACA_site464] | 10.2 |
| TTCAAAAAAATGTATACACACATAAGTATAATATAA [CACACA_site3758] | 9.83 |
| TGTTTATGTATCAATTGTACAAAAAAAAAAAAAAAA [XGTACX_site1590] | 9.37 |
| ATAAATGAAAAAAAGCGTACATATAAAAAAATATAT [XGTACX_site5063] | 9.98 |
| ACTTACCCATTTATTACACACATAAAGGAAAATTTT [CACACA_site4873] | 9.88 |
| TGTAAATAATATAATAGTACGCATATTTTTATTGAA [XGTACX_site284] | 9.71 |
| CTTATGTGCATACCTACACACTTACAGATATATATA [CACACA_site5622] | 9.88 |

| Sequence | gcPBM binding intensity (ln) |
| --- | --- |
| TTCAAATATTTTATTTGTACATAAAAAAGAAAGTTA [XGTACX_site8287] | 9.39 |
| TAGGAAGAATTACTGTGTACTAAAATATTAAAAAGT [XGTACX_site4909] | 9.75 |
| AATCTTCATACCAACACATGCACAAAAGAAATAAAA [TGCATGCA_site563] | 9.84 |
| CATAAGAAAATAAAAACATGCACATAAGAAATATAC [TGCATGCA_site842] | 10.2 |
| ATATAAATATATGGAAGTACACAAAAAAATTAAAAA [XGTACX_site8624] | 9.86 |
| TATATTTATACATATTGTACATTTTATACTTTTACA [XGTACX_site3884] | 9.78 |
| ATTTATAATCAGGGTTGTACACTTATAGAATTTTTA [XGTACX_site4175] | 9.58 |
| GTCGCATTTTATACAAGTACACATGAATTATACAAC [XGTACX_site2200] | 9.76 |
| TAAATAATATCTATCACACACGCATATATACATATA [CACACA_site2622] | 9.98 |
| ATTATTAAAAAGATGTAAATAAATGAATATATGCTT [CACACA_negctrl_site539] | 9.66 |
| TTCTATATATTTTAATGTACATATATGATTATTCTT [XGTACX_site8294] | 9.84 |
| TATTAAGAATTTACATGTACTTGTTAAATAAGAAAA [XGTACX_site4466] | 9.34 |
| ATATAGTATAATAAAAGTACATTTTGATTTTTTCTC [XGTACX_site1797] | 9.61 |
| TTAAAAAAAAGACACACACACATACACATATTTATA [CACACA_site7535] | 11.2 |
| TATATATATATATATACACACATATATATAAATATA [CACACA_site2035] | 9.75 |
| CACAAAAGTAAGCACGCACACACAACCTGAAATAAA [CACACA_site166] | 10.3 |
| ATATTATATAAATATACACACATTGTTTTATAGCAT [CACACA_site2386] | 10 |
| AAAAAAAAATACATATGTACATATACATATATATAT [XGTACX_site2975] | 9.82 |
| ATATATTTAATTTATGGTACACATAATTTTTTTAGA [XGTACX_site848] | 9.44 |
| AAAATCCACATTTTAGTACACACTTAAAAAATTATT [CACACA_site2955] | 9.64 |
| GAACATACTCAAATAGCACACACATAAATAAAAATG [CACACA_site9283] | 10.1 |
| TTATATATATATATATGTACGAAAAAGAAAAAAAAG [XGTACX_site6761] | 9.66 |
| TATATATATATAATATGTACATATAATCAACATTTT [XGTACX_site3915] | 9.69 |

| Sequence | gcPBM binding intensity (ln) |
| --- | --- |
| TTAGTCATATATATATGTACACACATATATATATTT [XGTACX_site2948] | 9.89 |
| AAAAGAAAATAAGAAACACACAAAAATATGTAAAAA [CACACA_site7694] | 10.2 |
| ATTTTTATATAATGAACACACATATTATATCATTTA [CACACA_site1572] | 9.71 |
| CCATAGATATTTTATACACACATATAACATATTAAT [CACACA_site6312] | 9.76 |
| ATATTGACAAATATTACACACATATATAAATATGTA [CACACA_site7835] | 9.69 |
| ATTTATTTTAATATATGTACATATATTTTTTTATTA [XGTACX_site3389] | 9.8 |
| ATATAATATTACACAAGTACAAAAATTAATACTAAA [XGTACX_site482] | 9.82 |
| ACCCATGATTGTTACAGTACTCTACTTTCTAATATA [XGTACX_site98] | 9.78 |
| AAACTGTCGCTCATAAAGAAGAATGAAATACATTAA [TGCATGCA_negctrl_site60] | 9.45 |
| ATATATGCATATTATACACACATATGTATATACATT [CACACA_site965] | 9.97 |
| TTTTCTGTATATTGTGTGCACACAATTAACAAAAAA [GTGCAC_site9817] | 9.9 |
| AAAAAAAAAAAAAATGCACACAATGGCTAGCTGTAC [CACACA_site2273] | 9.83 |
| TGGAGGTCAGTTCACAGTACCCAGGAAATCTACGGA [XGTACX_site1995] | 9.37 |
| ATAAAATATAAAAAAAGTACAAAAAAAAAAAAAAAA [XGTACX_site6657] | 9.11 |
| CGTTATTATCCACATACACACAGGAATAAAAAATTA [CACACA_site2883] | 10.1 |
| TAGTAATATATATTTTGTACATAAAATAATATATAA [XGTACX_site7971] | 9.59 |
| ATTTGAAATGCATGAACACACACAGCTATAAATGCA [CACACA_site8229] | 9.82 |
| TATATATGTTAAAACGTGCACATATATATATATATA [GTGCAC_site9589] | 9.49 |
| TATATATATATATATATTGAAATTTATAATAATATT [TGCATGCA_negctrl_site407] | 9.24 |
| AACATAGAAACGTTATGTACATATTGAAGGATATTA [XGTACX_site6015] | 9.92 |
